Results taken from the supplement of paper PMC11417369.
± gives the standard deviation of the averaged measurements. This is one part of the list.

System: PfAP2-EXP AP2 domain (GST-tagged)
Experiment: gcPBM binding intensity (ln(normalized median fluorescence intensity)); higher = stronger DNA binding
Procedure, shortened: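 GST-tagged P. falciparum DNA-binding domains, expressed in E. coli (about 25 μg on average), were applied for 1 h to an Agilent 4 × 180k array of primer-extended double-stranded 36-bp intergenic genomic probes plus negative controls. The binding buffer was 1× PBS with 1% milk, 0.2 mg/ml BSA, 0.5% salmon testes DNA and 0.03% Triton X-100. Bound protein was detected with Alexa488 anti-GST antibody and scanned at 488 nm. Binding intensity is the highest Masliner-normalised natural-log median intensity across replicate spots of either probe orientation.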

Sequence | gcPBM binding intensity (ln)
TGATTCTTTTGTATCACACACACTTAGTTTAATTTT [CACACA_site2404] | 8.62 ± 0.41
ATTTATAATGTGTATACACACATATATAGATTTGCT [CACACA_site6440] | 8.46 ± 0.33
ATTGATCGGATAAAATGTACAAATATATATATATAT [XGTACX_site7345] | 9.96 ± 0.19
AACTCACATAAATTCACACAAATGTATATTCATATA [CACACA_site4554] | 8.4 ± 0.44
AAATTATAATATAATACACACATAAAAAAAAAATCA [CACACA_site3634] | 8.6 ± 0.43
TATATATATATATATTGTACACATATATATTTACGA [XGTACX_site4791] | 10.1 ± 0.21
AACATGAAAGATAGCAAAAAAAAAAAAAAAAAAAAA [TGCATGCA_negctrl_site607] | 7.92 ± 0.47
AAAAAATAATAAATCACACATATTATATATATATAT [CACACA_site5838] | 9.88 ± 0.27
CATATTAATATTATGGGTACATATAAATTTACATTC [XGTACX_site687] | 8.64 ± 0.38
TCTTTTTTTATTTTATTTTTTTTTTTTAAATAATTC [TGCATGCA_negctrl_site372] | 8.44 ± 0.4
AAAACATAAATACATACACACATAATATATATTAAT [CACACA_site109] | 8.79 ± 0.25
ATTATAATATTGTTATGTACATAAAAATTATTGAAT [XGTACX_site4476] | 8.64 ± 0.26
ATAATATATTTATAATGTACATAAGAACAAATTAAA [XGTACX_site1745] | 8.75 ± 0.41
GGTATATTAAAATAGGTGCATAAAACTAAGAGAAAA [GTGCAC_site9781] | 9.33 ± 0.028
ACGTTTGATACACATAAAGTTTTCCTTTGAATGTAC [CACACA_negctrl_site106] | 8.53 ± 0.42
AAAAATTACCTGACTTGTACATAATTTAAGAACAAT [XGTACX_site6233] | 8.45 ± 0.36
ATAAAATAAAAGTGTACACAAGAAAATATGTTATGT [CACACA_site6033] | 9.44 ± 0.59
TGTGCTATATTCATATGTACATATAATTATTATATA [XGTACX_site3549] | 8.86 ± 0.028
AATAATACACAATTTTGTACGTATTTAAAATATATT [XGTACX_site45] | 8.56 ± 0.41

Sequence | gcPBM binding intensity (ln)
TAAAATATATAATAATGTACATATTTTTATTTAGGA [XGTACX_site4987] | 8.15 ± 0.31
AATTAAAAACATTTCACACATAAAAATGAAATATAT [CACACA_site5199] | 8.53 ± 0.3
TATTTATGAGAAATAGTGCAAAGATATGATCTTTAA | 8.28 ± 0.23
TGTATGAAATATATTACACACATATAAAATCTATAT [CACACA_site6514] | 8.35 ± 0.57
TTGATGTTGGTAGGATGTACGGTACCGGTAAAGTTT [XGTACX_site7705] | 8.92 ± 0.49
TTTTTAATTTTTTGTTGTACATATAATATATTATTA [XGTACX_site4903] | 8.6 ± 0.27
AAGCTTCATTAATATACACACATATATGCGTATATT [CACACA_site3695] | 8.47 ± 0.4
AAATTTGAAGAATATTGTACGCATAATAATTAAATA [XGTACX_site4300] | 8.82 ± 0.41
TATATAATTATAAGAACACACATATATATATATATA [CACACA_site2472] | 10.2 ± 0.2
ATATATATATATTGCACACACAATTATTATTATTAT [CACACA_site2299] | 10.03 ± 0.035
TATATATATATTTTAACACACACATATATATATTTA [CACACA_site8892] | 9.56 ± 0.21
ATGCTTTTTAAATGATTGCACTAGATTGTAATATGT [GTGCAC_site9666] | 8.62 ± 0.33
AATTATATATTTGAGAGTACATATGTAATGTTTATA [XGTACX_site6970] | 8.57 ± 0.33
GTGCATATCTGATATACACACAATAAAATAGTATGT [CACACA_site7203] | 8.48 ± 0.28
TATGATACATAAATATGTACGTATAATATATATTTA [XGTACX_site7002] | 8.39 ± 0.35
CATATATTATTTATACGTACTAATAAAATAAATCAA [XGTACX_site1030] | 8.52 ± 0.26
CCCGTAAATTATGAGTGTACGTTATTTTTTAAAATG [XGTACX_site3946] | 8.81 ± 0.49
ACATATACATATATATGTACATAAATATATATATAT [XGTACX_site8630] | 9.64 ± 0.42
TTCTAACTTTTAAACACACAAATATAAATAAGTATA [CACACA_site7473] | 8.29 ± 0.62

Sequence | gcPBM binding intensity (ln)
AAGAATAATAATAAATGTACACAATATTATATATAT [XGTACX_site5525] | 8.67 ± 0.085
AAATGAACAAGTGGCACACACACATTATAACTAATT [CACACA_site9048] | 8.49 ± 0.54
GAACGTATCATGTGTACACACAAATTGTTTTTTTTT [CACACA_site2020] | 8.79 ± 0.39
TGCAAGCTTATATAGGTGCACATGTATACGTGTTCA | 9.01 ± 0.25
TATGTAGTCACAAGGTGTACACTTTAACAAATTATG [XGTACX_site8792] | 8.97 ± 0.42
TATTAAAATTAAAAAAAAAAAAAAAAGCAATAAAAA [XGTACX_negctrl_site426] | 8.33 ± 0.71
TATATACACAAACACACACACACATACACCCACATA [CACACA_site8504] | 8.72 ± 0.53
CACAAAAAGAAACACACACACATATATATATATATA [CACACA_site999] | 10.2 ± 0.22
ATTCTAAATAATAAGAGTACAAATAATATGGAGAAG [XGTACX_site5209] | 9.12 ± 0.51
ATATGAACATTTACATGTACATGTAAATGTAACACT [XGTACX_site4574] | 8.71 ± 0.37
TGCTCATTCCTGTCATGTACATATTATATATATATA [XGTACX_site6890] | 9.8 ± 0.099
GAAAATATGTAATAGTGTACACATATATATGTATAT [XGTACX_site306] | 8.76 ± 0.18
ACTCCATAATATTGATGTACTATAATGCATTTATTT [XGTACX_site5562] | 8.95 ± 0.34
TATTTATTTTCATATAGTACTTTTTTCAGGCATATA [XGTACX_site6691] | 8.6 ± 0.39
TTATAGAATTTATTTACACACAAACATTTATACTTT [CACACA_site7592] | 8.39 ± 0.38
TTCAAAAGCCGGATAACATGCAGTAGTAGAACAAAC [TGCATGCA_site413] | 9.66 ± 0.46
TTTATTTATGTTGAAACATGCAAAAAGTTATTTATA [TGCATGCA_site716] | 8.36 ± 0.36
AAATTAAAAAAATAATGTACATGTATTTATTATGTA [XGTACX_site2419] | 8.47 ± 0.4
TTTATTTATTATTAAAGTACTAAATCATATAATTAT [XGTACX_site5727] | 8.1 ± 0.3
